The text below walks through data of paper PMC12136788.

The chains are these.
B1: chr8:26933331:26933332:-_ENSMUSG00000031575_ENSMUST00000166078|mus_mus|motif|central (ssRNA)
RNA: GGGAGUUCUACAGUCCGACGAUCCUGGUGGAACUUGGUGCCUUUCUUGCUCCGCCAAGAAUAGCUAAACUUAUCAUAGCCGGAGGGAGCUUGGAGGUUACCUAAGGGCUGGGACCAGCCCAGCCUGGCAGCAGUGUCUGGGGGCAACAGAGGAUUGAGCAUCA
B2: chr5:61651017:61651018:+_ENSG00000068796_ENST00000381103|hu_hu|motif|central (ssRNA)
RNA: GGGAGUUCUACAGUCCGACGAUCCCUAUGUUCAUCAAUAGGAUCUGCUGUUGUUAAUGGUCUAUAAUCCAAACUUCCUCGGAAGUCUCUGAUCAUACACAUAAUUUCAUAAUUUGGGUUUGUAGCAUCAACGUCCUGGGCUCUCAACAGAGGAUUGAGCAUCA
B3: chr7:54825262:54825263:-_ENSG00000132432_ENST00000352861|hu_hu|hu_hu_hu_mus_False|1_98 (ssRNA)
RNA: GGGAGUUCUACAGUCCGACGAUCCUGCCGGCUGGGCACAAACUGCAGCAUUACCUGAUCCAUGUUUGUUGGAUGGCGGAUUGAGAGCGUAGAGACACGUAGCUCAGGAGAGAACCGAGCCCAACGGAACCGGAAGCGGAAUCCCAACAGAGGAUUGAGCAUCA
B4: chr1:60041781:60041782:+_ENSMUSG00000041040_ENSMUST00000036540|mus_hu|mus_mus_mus_hu_False|38_48 (ssRNA)
RNA: GGGAGUUCUACAGUCCGACGAUCAAGUUUACAAUAGUAAAGUAAAUGCAGUAGUGGCAAAUUUUCUUUUAUUUUCCUUCACAAAAGAAAACCUCAGGAUCUCAGUUCUAGUCUUGGACAUAGUGAAAGCUAUAAAUUCUGACUCAACAGAGGAUUGAGCAUCA
B5: 32258711_32258831_4409_3pUTR_ENSMUSG00000024384_ENSMUST00000025243|mouse|control|control (ssRNA)
RNA: GGGAGUUCUACAGUCCGACGAUCAACUCUUAAAAACUUGCUUUACAUGUCAGAACUGUUUUGAAUUCAUUAGAUGCUUUUAUUGUUUUUAGUUAAUGAAAUUAAACAAAGCCAGAGGUAGUUUUUGCCACCACCUAGUCUGUACAACAGAGGAUUGAGCAUCA
B6: chr11:82972979:82972980:-_ENSG00000137500_ENST00000527495|hu_hu|motif|central (ssRNA)
RNA: GGGAGUUCUACAGUCCGACGAUCAGCCACAGCAGGAUGAGCAUUAAUACUACUUCCAGAAUCUAUAAAAUCCCAAUGCGGUUGCCAGGCAAGUAAACACCGAAGCUUUUUUGUAAAUUCUGUAGUUGUUUCCAUAAGUUGCUUCAACAGAGGAUUGAGCAUCA
B7: chr5:23013406:23013407:-_ENSMUSG00000062604_ENSMUST00000088392|mus_mus|FALSE|FALSE (ssRNA)
RNA: GGGAGUUCUACAGUCCGACGAUCUCCAAUGUACUGGGAGAAAUUUGCUAGCUCAGAAUGCUAUAUUUGUAGAAUCUGCUAAGAAUUCAACCAAGGAUGUCGAAGGCAUUCGCCAGCUGAGGCUCGUUUUUCUGGAACCAUCUCCAACAGAGGAUUGAGCAUCA
B8: chr2:115689366:115689367:-_ENSMUSG00000027210_ENSMUST00000074285|mus_hu|FALSE|FALSE (ssRNA)
RNA: GGGAGUUCUACAGUCCGACGAUCCUUUGAAGAAGAGUCCCCCAAAAAUAAUAAUAAGAAUUGGCUUAUGAAGCACGAACUAUAAAGAUCUGUUUGAAACUAAAGGACACAUUUAUGGAGGAACAAAGGCCGGGCAUGAAAACACAACAGAGGAUUGAGCAUCA
B9: 200376840_200376960_2058_3pUTR_ENSG00000162702_ENST00000294740|human|control|control (ssRNA)
RNA: GGGAGUUCUACAGUCCGACGAUCACAUACUUGCUUUAUCAUUUGAAGGUGUUUGGGUGCCUGGGCUCAAAUUUUCUUCUUGAACCAAUUCUGAGUGUUCUCCUGAGGUGUGUAAAUCCACUCGUGGUUCUGCAAUAUUGAAAGCAACAGAGGAUUGAGCAUCA
B10: chr17:60642451:60642452:+_ENSG00000146872_ENST00000343388|hu_hu|FALSE|FALSE (ssRNA)
RNA: GGGAGUUCUACAGUCCGACGAUCUUCCUGUUGCUUGAUAAGAUUCUGAAAAGCAUAACCAUCUGUCCACUGUUCAGUAAAUGAGGCUCCGUGUCGGACAGUAGUAAAGUGGCCCAGUCUCAAGCGGUCUUGCAUGCUCUUAUCCAACAGAGGAUUGAGCAUCA
B11: chr2:38870607:38870608:+_ENSMUSG00000026755_ENSMUST00000090993|perfect_dup|motif|central (ssRNA)
RNA: GGGAGUUCUACAGUCCGACGAUCUAACAGGAUUUUUUUUUAAACAGUCUUUCUUGCUGUAAGAACUCUUAUAAUGGAGCCGGGUCCUCCUACAGCUAAGGCCUUUUCAUGCCACUGGAGUAGCACUGCACUGCUAUUUUCUGUCAACAGAGGAUUGAGCAUCA
B12: chr2:216981417:216981418:+_ENSG00000079246_ENST00000392132|hu_hu|hu_hu_hu_mus_True|38_88 (ssRNA)
RNA: GGGAGUUCUACAGUCCGACGAUCCUGAUACUGGUCCUUGCCAGCAAGGGGAUUGUCAGUGCCAUCUGUGCCAUAGAGGACUAACGCAAUCUCAUCUUUGUUCUCAGAAAAUACCUGUCGUUGGACAAACAUAGUCAUCACUUUCAACAGAGGAUUGAGCAUCA
B13: chr7:97322993:97322994:+_ENSMUSG00000039361_ENSMUST00000049537|mus_mus|FALSE|FALSE (ssRNA)
RNA: GGGAGUUCUACAGUCCGACGAUCUGUUGUAGCCCUGCUUGCAGCUGUGGAAUCUUUGAUUUUCUUUCCUUCCAAGGAAGCUAAAUGUUGUUCUAAAGCAUCAAGAAGACUGCUGGGGGCCUGUGAAAGAUCUGGAAUAUCUCCCAACAGAGGAUUGAGCAUCA
B14: chr7:102939105:102939106:+_ENSG00000105819_ENST00000453466|hu_mus|FALSE|FALSE (ssRNA)
RNA: GGGAGUUCUACAGUCCGACGAUCCCCAACUGUGCACGUUGAGAGCCCAGAGUUUUCAGAAGCUACUCUGAGUCCAUUUUCCAAACAUGUCACUUGUGUCUCGGGGACAUUCAGCACAACCUGUGGGGCAGCCUGUGUGCUUCUCAACAGAGGAUUGAGCAUCA
B15: chr8:54730063:54730064:-_ENSG00000047249_ENST00000359530|hu_mus|FALSE|FALSE (ssRNA)
RNA: GGGAGUUCUACAGUCCGACGAUCUGGCAGGAAGUAUGGCCAGGCAGUGCUCUUGCUUCGUUUCGCAUAGUCAAAGAAAAUGCUGACACGCUGGUGAUUUUCCUGCAGCAUAUCGUCAACCAUGGUUAGUAUGUACUGCACUGUCAACAGAGGAUUGAGCAUCA
B16: chr14:89338683:89338684:+_ENSG00000165533_ENST00000346301|hu_hu|hu_hu_hu_mus_False|78_108 (ssRNA)
RNA: GGGAGUUCUACAGUCCGACGAUCGUGGUUGUUGUUGACCAGGGCCAGCCUGAAGCACUGAUGGGCCAAGUUUGUAUCUCCGAUUCCCACAGCUAUGUGCCCCAGGUUGUACCAGACAUCAGCUGCCUCUUCUUCAUUUUCAGCCAACAGAGGAUUGAGCAUCA
B17: chr11:105132459:105132460:+_ENSMUSG00000020694_ENSMUST00000015107|mus_hu|motif|central (ssRNA)
RNA: GGGAGUUCUACAGUCCGACGAUCGAUCUUCGAAAGACCAAAAUCUGUAAUUUUUAUCUCUCCACACGCUGUACCAUUUACGGAAAGAAUAUUACCUGGUUUGAGGUCAUAGUGUAUGAUGGGAGGUUUUAUUUCAUUUAAGUACAACAGAGGAUUGAGCAUCA
B18: chr2:202488911:202488912:-_ENSG00000155755_ENST00000286196|hu_mus|hu_hu_hu_mus_False|28_108 (ssRNA)
RNA: GGGAGUUCUACAGUCCGACGAUCAUUUAACAUUUUUUCAUAAUCUCCAGUAGCAUUUCAGCAUUAUGUAACAAAAGCUCAAUUGUAAAUACAUGUAUCUUAUAAAAAUAAAAAUACAAACACGAGUGGGGAGCGCAGGCGCCACAACAGAGGAUUGAGCAUCA
B19: chr6:29525140:29525141:-_ENSMUSG00000012535_ENSMUST00000012679|mus_mus|motif|central (ssRNA)
RNA: GGGAGUUCUACAGUCCGACGAUCAUUGGUUUUGUAUAAAUGUUCUCCUAGUCGGUACCAAAAGUUAAAGGAAAUUUCGGCGGCCUCAUACUGAGGGUGGCCUGCACAGAUAAGAAGCAAUUCCAAAGUUCGAAGAUCUCCCAGCAACAGAGGAUUGAGCAUCA
B20: chr18:56819859:56819860:+_ENSG00000166562_ENST00000588875|hu_mus|hu_hu_hu_mus_True|78_108 (ssRNA)
RNA: GGGAGUUCUACAGUCCGACGAUCAACUUUGAUUACUCUGUGAACUAUCGGAAUGUCUCGUCCUUCAACCUUAAAAACAACUAUUUCACCAGCUCUGAUGGGGUCCUCCCGGAAAUUCGUGAGGAACAGCAGAUCUCCUCUGUGCAACAGAGGAUUGAGCAUCA
B21: chrX:21990627:21990628:+_ENSG00000102172_ENST00000404933|hu_mus|FALSE|FALSE (ssRNA)
RNA: GGGAGUUCUACAGUCCGACGAUCCACCCGCCCAGUACUGUCUUGACUCAAUUCUUUCAUUUUUUCUUCUAUUUUGUUCAAAAGGCUGUCAGUUUCUUGUUUGCCUUGCACAUCACUGUCGUAACUCUGAAGGUCCAGCAACACCAACAGAGGAUUGAGCAUCA
B22: chr14:78183846:78183847:+_ENSG00000119705_ENST00000557342|hu_hu|hu_hu_hu_mus_False|18_68 (ssRNA)
RNA: GGGAGUUCUACAGUCCGACGAUCUCUCAGAAAUCUUUCUUCAUCAGAUGUUUGAGCUCCGUGCAAAAGUUUUGGCCUUUGAGCUUGAACGUGGAUCUAUGGGAGGGAAAGCACUGUAUUUUCCUGUAAUUUUUUUUUUAAAGACAACAGAGGAUUGAGCAUCA

The list shows a part of the results.

For this experiment, the target named is T1, UNK ZnF1-3 (human, UniProt Q9C0B0 31-174).
T1 sequence: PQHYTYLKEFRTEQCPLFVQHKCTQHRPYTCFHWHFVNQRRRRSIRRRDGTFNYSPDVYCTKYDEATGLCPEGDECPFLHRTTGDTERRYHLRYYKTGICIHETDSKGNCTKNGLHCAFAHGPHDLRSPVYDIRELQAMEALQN
Description: nsRBNS (natural sequence RNA bind-n-seq); RBNS binding buffer (assumed for nsRBNS): 25 mM Tris pH 7.5, 150 mM KCl, 3 mM MgCl2, 0.01% Triton X-100, 500 ug/ml BSA, 20 U/ml SUPERase-In, 4 C; UNK is unkempt and MSI1 is Musashi-1; names of the RNAs are library labels; protein concentration not given here; high values mean tight binding.
For the molecule B1, the binding signal was 1.03 enrichment R.
Consider B2, for which the binding signal was determined as 1.07 enrichment R.
In the case of B3 it was 1.09 enrichment R.
With B4 the figure was 0.679 enrichment R; with B5, 0.558 enrichment R.
With B6 the figure was 2.24 enrichment R; with B7, 1.09 enrichment R; with B8, 2.88 enrichment R.
B9 registered a binding signal of 0.548 enrichment R.
B10: the binding signal stood at 0.953 enrichment R.
With B11 the figure was 0.52 enrichment R; with B12, 1.18 enrichment R; with B13, 1.13 enrichment R.
In the case of B14 it was 0.828 enrichment R; in that of B15, 0.661 enrichment R; in that of B16, 0.586 enrichment R.
In the case of B17 it was 0.993 enrichment R; in that of B18, 0.979 enrichment R.
B19 yielded a binding signal of 0.811 enrichment R.
B20 registered a binding signal of 0.73 enrichment R.
As to B21, the binding signal turned out to be 0.728 enrichment R.
With B22 the figure was 1.12 enrichment R.
